Assay results as given in the supplement of paper PMC4166925.
± gives the standard deviation of the averaged measurements. In all, about 33,000 sequences were measured (“E-score (dimensionless, -0.5 to 0.5)”: median about -0.046, highest 2% from about 0.36 on). The list shows a part of the results.

Tested on: T1, SpTbr T-box DNA-binding domain (GST fusion)
T1 sequence: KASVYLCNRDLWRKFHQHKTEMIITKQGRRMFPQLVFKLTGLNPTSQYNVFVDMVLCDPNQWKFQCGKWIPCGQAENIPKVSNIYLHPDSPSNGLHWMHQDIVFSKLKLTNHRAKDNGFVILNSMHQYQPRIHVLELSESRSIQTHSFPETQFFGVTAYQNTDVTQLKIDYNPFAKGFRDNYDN
Test: PBM E-score of 8-mer (E-score (dimensionless, -0.5 to 0.5)); Tbr is Tbrain of the sea star Patiria miniata (Pm) or the sea urchin Strongylocentrotus purpuratus (Sp); higher = stronger binding preference; most listed sequences are background and not binding sites
Settings: the construct has about 5 more residues each side
Summary of the method: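 GST-fused Tbr T-box DNA-binding domains (the whole T-box plus about five flanking residues) were expressed in BL21 E. coli at 20 °C and purified by glutathione affinity chromatography. Universal Agilent oligonucleotide arrays were made double-stranded by primer extension, incubated with 200 nM protein in PBS (pH 7.5), then scanned and quantified. Every ungapped 8-mer was scored from probe intensities. The Universal PBM Analysis Suite gave each word an enrichment E-score, averaged over duplicate arrays.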

Sequence | PBM E-score of 8-mer
ACGCCATA | -0.0851 ± 0.0062
CCTCTAGC | 0.169 ± 0.061
ATACCCAT | -0.206 ± 0.0075
CTTTGTAC | -0.111 ± 0.036
AACACGTG | 0.36 ± 0.008
ACTGCCAG | -0.133 ± 0.072
GGTCTTAA | -0.0355 ± 0.054
CTAGGCCA | -0.041 ± 0.032
TCTTGAAA | -0.00537 ± 0.069
TGACTTAA | 0.021 ± 0.066
ACACAAGC | 0.103 ± 0.03
ACACTACT | 0.0839 ± 0.024
CGAATCCC | -0.0359 ± 0.1
AAATTCAA | -0.0949 ± 0.042
CATCCTAA | -0.185 ± 0.033
AGTGCCTA | 0.0376 ± 0.0082
ACTGCGAG | 0.17 ± 0.033
AATTTGGG | -0.194 ± 0.017
ATCCCAAT | -0.172 ± 0.042
AGAGCGCA | -0.0186 ± 0.032
AACTCGAC | 0.195 ± 0.031
AAGAGGGT | -0.096 ± 0.028
AGTCAATC | -0.203 ± 0.025
CTAGCATC | -0.0594 ± 0.067
ACAACTGT | 0.216 ± 0.025

Sequence | PBM E-score of 8-mer
CGGGACGC | -0.0224 ± 0.019
AAGAGCTC | -0.165 ± 0.046
ACCCGATC | 0.0864 ± 0.06
AAGTGCAG | 0.206 ± 0.011
CACCTAGG | 0.392 ± 0.012
CTCTCTAA | -0.0322 ± 0.062
ATCTCCTA | -0.238 ± 0.029
CTGAGCCC | -0.253 ± 0.044
ACTACACC | 0.282 ± 0.028
AGGTCTCC | -0.241 ± 0.045
CAATAGAA | -0.0248 ± 0.1
ACGTGCAC | 0.00032 ± 0.1
GCCTGAGC | -0.136 ± 0.013
ACTACGGG | -0.31 ± 0.036
GTGGCAAA | 0.309 ± 0.024
ATGGGGGG | -0.172 ± 0.0088
GAGCATTA | -0.0462 ± 0.063
AGGAACGC | -0.0105 ± 0.016
CTTTCGGA | -0.063 ± 0.024
AACTTTAG | -0.19299 ± 7.1e-06
AATACACG | 0.00776 ± 0.0082
AGCCCTCC | -0.206 ± 0.055
CGAGGCGA | 0.211 ± 0.034
AGGCGGAC | -0.166 ± 0.018
CGACATGC | 0.0671 ± 0.079

Sequence | PBM E-score of 8-mer
AGTTACGA | -0.134 ± 0.01
GCTGAAGC | -0.146 ± 0.0035
CTCTCTTC | -0.223 ± 0.042
AAGCTCAA | -0.121 ± 0.027
GATATTAA | -0.113 ± 0.063
AGCGAGCG | 0.154 ± 0.098
GATCTTAC | -0.204 ± 0.018
GACACGTC | 0.333 ± 0.0087
CTTCAAGA | -0.314 ± 0.059
AGGCTTCG | -0.107 ± 0.099
ACGCTCCG | -0.0654 ± 0.0084
GATCTTAA | 0.00541 ± 0.01
GCACGCGC | 0.216 ± 0.095
ACGAGATC | 0.0815 ± 0.024
ACTGGGCT | -0.25 ± 0.058
AGTAATTG | -0.134 ± 0.022
GTTAAGGA | -0.00874 ± 0.063
CTTGCCTA | -0.0392 ± 0.028
AGACTGAC | -0.154 ± 0.051
ATGTATAG | -0.168 ± 0.055
CACCGGCA | 0.098 ± 0.047
CTGCGTCA | 0.0398 ± 0.00065
AGTTCGTC | -0.0931 ± 0.018
ATTGCCTA | -0.174 ± 0.062
CGCGTCCC | 0.0857 ± 0.045

Sequence | PBM E-score of 8-mer
CTTTGTGA | 0.0945 ± 0.074
CCTTCTCA | 0.0198 ± 0.088
AGCTTTGA | -0.239 ± 0.067
CGGAAGTC | -0.166 ± 0.062
ACCCGGCC | -0.136 ± 0.016
AAAGAGTA | -0.107 ± 0.13
CCTGAAAG | -0.253 ± 0.035
AGGCAACG | 0.0612 ± 0.062
GATTGGTA | -0.15 ± 0.049
GACCCCTC | -0.00634 ± 0.066
GACCACAC | 0.28 ± 0.038
GCGCGCGC | 0.0386 ± 0.035
GGCCCTAC | -0.211 ± 0.065
CAGGGTAC | -0.0581 ± 0.078
CAGCCGGC | -0.0135 ± 0.023
AACCCGAT | 0.0929 ± 0.049
AGAAGGCT | -0.0249 ± 0.022
GGGAGTGA | 0.204 ± 0.0052
CCTGACCC | -0.133 ± 0.084
TACGGTAA | -0.0909 ± 0.058
CAGCGCTA | 0.116 ± 0.045
CTAACCAA | -0.0774 ± 0.073
CCTCGAAG | -0.0399 ± 0.025
ATAAAGTC | -0.0715 ± 0.032
AGGTTATA | 0.0561 ± 0.06

Sequence | PBM E-score of 8-mer
CCGTAGTA | -0.238 ± 0.043
GGCTTCAA | -0.0895 ± 0.031
ATACTGAT | -0.117 ± 0.0039
GCTGAACA | -0.132 ± 0.039
ACAAAATA | -0.00317 ± 0.0089
CGTGTAGC | 0.0236 ± 0.011
CCGAACAG | -0.0871 ± 0.062
ACTCTAAC | -0.144 ± 0.026
GATGAATC | -0.024 ± 0.047
AGCCGCCC | -0.267 ± 0.033
CTATACTC | -0.118 ± 0.04
CTCGCGGC | 0.17 ± 0.018
AATTCTTG | -0.0559 ± 0.075
AGTCGCAC | 0.387 ± 0.0041
AGTGAGTG | 0.124 ± 0.033
CGATTCCC | 0.0184 ± 0.014
AACGACGC | 0.196 ± 0.0023
ATCCCTTC | -0.198 ± 0.053
ACTCTCCA | -0.197 ± 0.012
CGCCCAAA | -0.143 ± 0.042
CAACCCGC | 0.0581 ± 0.066
GCCAGTGA | -0.0539 ± 0.08
CGCTGAAC | -0.00722 ± 0.02
CCATAAAA | -0.237 ± 0.09
ACAATATG | 0.11 ± 0.028

Sequence | PBM E-score of 8-mer
ACATCACC | 0.126 ± 0.037
AACGCCTG | 0.292 ± 0.006
CACTTACG | 0.228 ± 0.06
CTTGAACC | -0.236 ± 0.042
AATATATT | -0.325 ± 0.025
TCACAGAA | 0.129 ± 0.013
GACAGCCA | 0.211 ± 0.0079
GCGGGCTA | -0.319 ± 0.093
GATTACTA | -0.14 ± 0.04
AAACCCCG | -0.0472 ± 0.019
ACGAGCAT | -0.0497 ± 0.081
CCGTACTA | -0.087 ± 0.016
CACTAGCG | 0.139 ± 0.072
CCAGGGTA | -0.124 ± 0.031
CTTTGGAC | -0.00665 ± 0.022
CAAGCCTA | -0.141 ± 0.038
ATTCTCGG | -0.0511 ± 0.073
CAAGGTCC | -0.257 ± 0.041
AGCTTTCG | 0.0665 ± 0.027
GCACAAGA | -0.0761 ± 0.12
TCCCGAGA | -0.0404 ± 0.043
GTCACCAC | 0.306 ± 0.0096
ACCAACGA | 0.102 ± 0.0046
ACGTTACG | -0.00872 ± 0.058
TATCCCAA | -0.193 ± 0.082

Sequence | PBM E-score of 8-mer
ACGACACG | 0.226 ± 0.042
GTAACCCA | -0.131 ± 0.021
AGACTTAG | -0.0887 ± 0.022
ACTAAGAA | -0.181 ± 0.077
AGGAACAA | 0.00263 ± 0.041
TACATTGA | -0.109 ± 0.04
TATGAGGA | -0.216 ± 0.029
AGTTCGGC | -0.0722 ± 0.068
CCCACTCA | 0.138 ± 0.057
CCTAGTTA | -0.168 ± 0.024
CATCGTAG | -0.139 ± 0.1
ACGCTTAC | 0.109 ± 0.0068
ACGAGTCC | -0.261 ± 0.04
GGCCATAC | -0.203 ± 0.026
GGACCAAA | -0.212 ± 0.02
CATATCAC | 0.238 ± 0.054
ATTGTAGC | -0.133 ± 0.062
AGGTATCA | 0.183 ± 0.024
ATCTATCC | -0.159 ± 0.0024
CCGAACAC | 0.248 ± 0.039
GTAGTCAA | -0.127 ± 0.051
CGGGAACC | -0.064 ± 0.024
